The list shows a part of the results. The energies were worked out here from pooled read counts, against the library average; single values are noisy.
Target: T1, Pho4 (S. cerevisiae) (UniProt P07270)
T1 sequence: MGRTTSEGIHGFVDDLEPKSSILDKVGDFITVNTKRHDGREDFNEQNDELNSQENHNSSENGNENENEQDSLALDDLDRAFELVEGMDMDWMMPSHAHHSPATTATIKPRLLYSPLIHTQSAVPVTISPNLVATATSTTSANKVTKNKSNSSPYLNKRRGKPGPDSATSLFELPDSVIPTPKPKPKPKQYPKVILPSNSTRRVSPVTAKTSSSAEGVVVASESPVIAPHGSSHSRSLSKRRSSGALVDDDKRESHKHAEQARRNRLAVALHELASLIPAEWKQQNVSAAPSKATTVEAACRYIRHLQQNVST
Assay: relative binding free energy (BET-seq); higher = weaker binding
Details: reference: library average

Sequence | relative binding free energy
AGTTTCACGTGGATTA | 0.24 kcal/mol
TGTTACACGTGTATTA | 0.18 kcal/mol
TGTGGCACGTGCTAAG | -0.21 kcal/mol
TTTGGCACGTGTAAAA | 0.22 kcal/mol
AGAATCACGTGAAAGG | 0.41 kcal/mol
GTGTACACGTGGCGGC | -0.05 kcal/mol
TGCTTCACGTGAGGTA | 0.31 kcal/mol
TTGTTCACGTGATCTT | 0.37 kcal/mol
AGGGACACGTGTTTGT | -0.07 kcal/mol
GGGAGCACGTGTTTTT | -0.03 kcal/mol
AGGTGCACGTGGGGCT | -0.29 kcal/mol
GTGGCCACGTGTGCGT | -0.02 kcal/mol
CTGGGCACGTGGTAAG | -0.07 kcal/mol
TGGTACACGTGGCAGG | -0.02 kcal/mol
GGTGTCACGTGGCTGT | 0.08 kcal/mol
GAGGTCACGTGAGGGA | 0.3 kcal/mol
GATGACACGTGCTGGT | 0.04 kcal/mol
GGGGTCACGTGGTGCG | 0.12 kcal/mol
TGGTGCACGTGTGATG | 0 kcal/mol
GGTGGCACGTGTGCTG | -0.03 kcal/mol
CAGATCACGTGTTTGT | 0.02 kcal/mol
ATTTACACGTGGCGCG | 0.1 kcal/mol
TGGTACACGTGAGTGA | 0.31 kcal/mol
TGGCTCACGTGAGGCT | 0.39 kcal/mol
AGTGCCACGTGGTGTA | -0.3 kcal/mol

Sequence | relative binding free energy
TGGTGCACGTGAACGG | 0.26 kcal/mol
AGAGGCACGTGTCTGT | -0.13 kcal/mol
AGGATCACGTGGTAGG | 0.07 kcal/mol
CCTGCCACGTGTGGGG | -0.02 kcal/mol
AGTGTCACGTGAGATG | 0.21 kcal/mol
GGAGTCACGTGACTGG | 0.29 kcal/mol
AGTATCACGTGGTTCT | 0.05 kcal/mol
GTGATCACGTGGAACG | 0.35 kcal/mol
GTCGGCACGTGATAAG | 0.13 kcal/mol
TGCGCCACGTGGGTTG | -0.38 kcal/mol
CGTTGCACGTGGTGAT | -0.06 kcal/mol
TTATGCACGTGGTCGT | -0.17 kcal/mol
GAAGGCACGTGGTCAG | -0.06 kcal/mol
GTCTGCACGTGGTATG | -0.05 kcal/mol
GTTTGCACGTGATTTC | 0.18 kcal/mol
GTAGTCACGTGAATTA | 0.39 kcal/mol
ATTTGCACGTGAGAGC | 0.32 kcal/mol
CTATTCACGTGAATGG | 0.35 kcal/mol
TTTCTCACGTGGGGGC | 0.26 kcal/mol
GAGTACACGTGGGGAA | -0.12 kcal/mol
GAAGGCACGTGGGTAA | -0.15 kcal/mol
ACGAACACGTGTGGGG | 0.01 kcal/mol
AAGCGCACGTGGGTTT | -0.25 kcal/mol
GTGTTCACGTGGTTCT | 0.27 kcal/mol
GATGTCACGTGATAAG | 0.28 kcal/mol

Sequence | relative binding free energy
ATATTCACGTGTGTGG | 0.21 kcal/mol
TGTAGCACGTGGCGTA | -0.23 kcal/mol
GCATTCACGTGGGTAT | 0.21 kcal/mol
TATAGCACGTGAAGTA | 0.51 kcal/mol
TGGAACACGTGGTTAA | 0.06 kcal/mol
GCGGGCACGTGTATGC | 0.06 kcal/mol
TTGCACACGTGTGATA | 0.19 kcal/mol
GAAGTCACGTGATTTA | 0.41 kcal/mol
ATATTCACGTGTCATG | 0.13 kcal/mol
GGTAGCACGTGAGTTT | 0.3 kcal/mol
GGTCTCACGTGTTGTG | 0.19 kcal/mol
GGAATCACGTGTTAAT | 0.36 kcal/mol
GTTCACACGTGGTATT | 0.1 kcal/mol
TGGTGCACGTGCGTTA | -0.05 kcal/mol
TAGTTCACGTGGAAGT | 0.34 kcal/mol
ATATACACGTGCTTGT | -0.08 kcal/mol
TGTTGCACGTGGTTGA | -0.1 kcal/mol
GCGGACACGTGTGTTT | 0.15 kcal/mol
TCTCTCACGTGTTGGT | 0.18 kcal/mol
AAAAACACGTGTGTGT | -0.1 kcal/mol
CGGGGCACGTGGGCAG | -0.24 kcal/mol
TGTATCACGTGTGTCC | 0.16 kcal/mol
CTCATCACGTGTAGGT | 0.23 kcal/mol
GATGACACGTGAGAGG | 0.2 kcal/mol
GGGAGCACGTGGGCAG | -0.32 kcal/mol

Sequence | relative binding free energy
ATCGGCACGTGTGGCT | 0.08 kcal/mol
TTGTACACGTGAGTTC | 0.17 kcal/mol
TCGGTCACGTGCTTTT | 0.04 kcal/mol
TGTCACACGTGGTATG | -0.18 kcal/mol
TGGCGCACGTGTCGGA | -0.13 kcal/mol
CAGGGCACGTGTTCGG | -0.15 kcal/mol
TATGTCACGTGGGCGT | -0.01 kcal/mol
AGTGGCACGTGGCCAG | -0.13 kcal/mol
ATTATCACGTGTATCG | 0.15 kcal/mol
GTGTGCACGTGCTCGG | 0.11 kcal/mol
TTTTCCACGTGATGTG | 0.21 kcal/mol
CGGTACACGTGTATGG | 0.08 kcal/mol
TTAGGCACGTGACAGG | -0.01 kcal/mol
TGTGTCACGTGTTCTG | 0.07 kcal/mol
CTAGGCACGTGGGAAT | 0 kcal/mol
TGTTTCACGTGTGTTG | 0.31 kcal/mol
AGAGGCACGTGAAGTC | 0.2 kcal/mol
GCATGCACGTGTAGTG | -0.03 kcal/mol
TGAGTCACGTGTAGAT | 0.29 kcal/mol
AAAGGCACGTGTTGCG | -0.18 kcal/mol
GCAGGCACGTGGAATG | -0.01 kcal/mol
TAGAGCACGTGGGGAG | -0.33 kcal/mol
CTGTGCACGTGTTAGT | 0.04 kcal/mol
ACTGGCACGTGGGCTT | -0.18 kcal/mol
ATTCGCACGTGGAAGG | 0.02 kcal/mol

Sequence | relative binding free energy
CTGTTCACGTGGGTAC | 0.11 kcal/mol
TGTAACACGTGTATTT | 0.01 kcal/mol
TTACGCACGTGGGTCG | -0.24 kcal/mol
CTTTTCACGTGGGTAG | 0.1 kcal/mol
AAGCTCACGTGGCGGG | 0.13 kcal/mol
TGGATCACGTGTGCTG | 0.15 kcal/mol
TCTGTCACGTGAGTGT | 0.28 kcal/mol
GTTTACACGTGGCTTG | 0.06 kcal/mol
CGGTGCACGTGAGTTA | 0.3 kcal/mol
GGAGGCACGTGTTGAA | 0.06 kcal/mol
TTATACACGTGGTAGT | -0.01 kcal/mol
TTGGGCACGTGGCTAA | -0.22 kcal/mol
TGTTGCACGTGCTGGA | 0.01 kcal/mol
ATAGTCACGTGATGTC | 0.16 kcal/mol
TCGTGCACGTGGCGTA | -0.14 kcal/mol
ATTTGCACGTGTAAGG | 0.02 kcal/mol
AGGTGCACGTGGGGAT | -0.09 kcal/mol
AGGTACACGTGCGGAT | -0.06 kcal/mol
CGTAGCACGTGTCGGA | 0.03 kcal/mol
GGCACCACGTGTTGTG | 0.14 kcal/mol
AATTGCACGTGGGCTG | -0.29 kcal/mol
GGGCACACGTGAGCGG | 0.32 kcal/mol
TGGGTCACGTGATGTC | 0.32 kcal/mol
CGGCTCACGTGGGGTC | 0.24 kcal/mol
AGTGTCACGTGTATGG | 0.02 kcal/mol

Sequence | relative binding free energy
GGTCACACGTGTGATT | 0.31 kcal/mol
AAGTTCACGTGTCTGT | 0.16 kcal/mol
TTGGTCACGTGATAAT | 0.22 kcal/mol
CTCGTCACGTGTGTGA | 0.04 kcal/mol
TGATACACGTGGTGTG | -0.15 kcal/mol
AATATCACGTGTATGG | 0.03 kcal/mol
TGCGGCACGTGTGTGG | -0.02 kcal/mol
GTTACCACGTGTTCGT | 0.14 kcal/mol
TGGAACACGTGACAGG | 0.37 kcal/mol
TTAGGCACGTGTCGCG | -0.09 kcal/mol
ACGTGCACGTGGATTG | -0.07 kcal/mol
ATACGCACGTGGTTAG | -0.16 kcal/mol
TTAGTCACGTGTTGCG | 0.05 kcal/mol
GGGGTCACGTGCTGGC | 0.04 kcal/mol
GGTTGCACGTGGTATG | 0.03 kcal/mol
TGCATCACGTGGGGCT | -0.05 kcal/mol
GTGGACACGTGCTTAG | 0.03 kcal/mol
AATGTCACGTGTCGAG | 0.25 kcal/mol
TAGTACACGTGCGAGT | 0.19 kcal/mol
ATATACACGTGAGTGT | 0.17 kcal/mol
GGGGGCACGTGCGGCG | -0.19 kcal/mol
